Measurements from PubChem BioAssay AID1745853 (National Center for Advancing Translational Sciences (NCATS), 2022).
The other results are listed elsewhere or left out. Shown are side measurements of this screen, not its main read-out; they come without a call.

Key:
Experiment in all cases: Primary Screen for Target Class Profiling of Small Molecule Inhibitors of Methyltransferases
[1] = molecular target: Glycine N-methyltransferase (Homo sapiens) (UniProt Q14749); conditions: purified enzyme, MTase-Glo SAH luminescence; measured here: GNMT inhibition; at 40 µM; stronger effect = lower value
Method in brief: (§1)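 Each enzyme was reacted with SAM and its substrate, with compounds tested once at 40 uM; SAH formed was read by MTase-Glo luminescence.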

[2] = molecular target: Guanidinoacetate N-methyltransferase (Homo sapiens) (UniProt Q14353); conditions: purified enzyme, MTase-Glo SAH luminescence; measured here: GAMT inhibition; at 40 µM; stronger effect = lower value
Method in brief: as §1

[3] = molecular target: Histamine N-methyltransferase (Homo sapiens) (UniProt P50135); conditions: purified enzyme, MTase-Glo SAH luminescence; measured here: HNMT inhibition; at 40 µM; stronger effect = lower value
Method in brief: as §1

[4] = molecular target: Nicotinamide N-methyltransferase (Homo sapiens) (UniProt P40261); conditions: purified enzyme, MTase-Glo SAH luminescence; measured here: NNMT inhibition; at 40 µM; stronger effect = lower value
Method in brief: as §1

[5] = molecular target: Phenylethanolamine N-methyltransferase (Homo sapiens) (UniProt P11086); conditions: purified enzyme, MTase-Glo SAH luminescence; measured here: PNMT inhibition; at 40 µM; stronger effect = lower value
Method in brief: as §1
On the % scale 0 is the no-effect control and ±100 the full control effect.

Compound	activity change, negative = inhibition [1]	activity change, negative = inhibition [2]	activity change, negative = inhibition [3]	activity change, negative = inhibition [4]	activity change, negative = inhibition [5]
Cc1ccc2c(c1)c(=O)[nH]c1c(C(=O)NCc3ccc4c(c3)OCO4)sc(=S)n12	-35.9%	0%	6.24%	-55.1%	-19.3%
C=CCn1c(=O)c2ccc(C(=O)NC(C)CC)cc2n2c(=O)n(CC(=O)Nc3ccc(C)cc3)nc12 (stereo not given)	1.3%	0.522%	2.2%	-2.7%	-1.29%
Nc1nc2c(ncn2[C@@H]2O[C@H](CO)[C@@H](O)[C@H]2O)c(=O)[nH]1	4.41%	5.21%	6.48%	-7.38%	1.37%
CCCn1c(=O)c2ccc(C(=O)NC(C)C)cc2n2c(=O)n(CC(=O)NC3CCCCC3)nc12	7.68%	1.3%	6.37%	8.26%	5.44%
CC1CC(=O)C2C(O)(C1)CC(O)C13OC1c1c(O)cccc1C(=O)C23O (stereo not given)	0%	1.47%	3.17%	-8.6%	4.79%
COc1ccc(-c2cc3n(n2)CC(C)(C(=O)NCc2ccccc2)N(Cc2ccco2)C3=O)cc1 (stereo not given)	4.58%	0%	11.7%	7.57%	1.42%
O=C1c2ccccc2C(=O)c2c1cccc2S(=O)(=O)Nc1ccc(Cl)cc1	-26.6%	-7.7%	-10.7%	-15.3%	-66.9%
CC[C@@H](C)[C@H](N)C(=O)N1Cc2ccccc2C1	-1.03%	-11%	-6.84%	-20.6%	-13.3%
CCN(CC)c1ccc(N2C(=O)c3ccc(-c4ccco4)n3CC2(C)C(=O)NCc2ccccc2)c(C)c1 (stereo not given)	-11.9%	-2.49%	-2.08%	-2.74%	-5.76%
CCC(C)C1NC(=O)C2C(C)CCN2C(=O)C(CC(O)CO)OC(=O)CCNC(=O)C(C)N(C)C(=O)C(C(C)C)N(C)C1=O (stereo not given)	4.78%	5.61%	7.46%	-8.72%	-1.92%
O=C(CCC1CCN(S(=O)(=O)c2ccccc2)CC1)NCCCN1CCCC1=O	-6.98%	-1.51%	-8.17%	-8.71%	-8.27%
COc1ccc(CC(=O)Nc2ccc3n(c2=O)C[C@H]2C[C@@H]3CN(C(=O)c3ccc(-c4ccccc4)cc3)C2)cc1	-9.45%	-5.7%	-8.53%	-21.8%	-6.56%
O=C1NCCCCCCN(C(=O)CCc2ccccc2)[C@H]2CCCC[C@@H]12	-1.33%	-1.9%	0.868%	-1.57%	-3.58%
CC(C)OCCCNC(=O)CCc1nnc2ccc(NCc3ccc4c(c3)OCO4)nn12	-5.73%	4.89%	-3.48%	-1.56%	-0.59%
COc1cccc(Cn2nc3n(CC(C)C)c(=O)c4ccc(C(=O)NCC(C)C)cc4n3c2=O)c1	1.51%	0%	2.59%	2.68%	3.57%
CC(C)=CCC/C(C)=C/CO[C@@H]1O[C@H](CO)[C@@H](O)[C@H](O)[C@H]1O	1.4%	-1.61%	4.49%	-11.8%	-7.86%
COc1cccc(N2C(=O)c3cc4sccc4n3CC2(C)C(=O)NC2CCCCCCC2)c1 (stereo not given)	-5.5%	2.16%	0.243%	-2.46%	-4.88%
COc1ccc(CCCN2C(=O)O[C@@H]3CN(c4nc(C)cc(C)n4)C[C@@H]32)cc1	-8.28%	-10.6%	-7.76%	-22.2%	-12.2%
CCc1ccc(C2c3cccn3-c3sc4c(c3CN2C(=O)Nc2cc(OC)ccc2OC)CCCC4)cc1 (stereo not given)	-3.88%	7.15%	8.33%	0.313%	-4.87%

Compound	activity change, negative = inhibition [1]	activity change, negative = inhibition [2]	activity change, negative = inhibition [3]	activity change, negative = inhibition [4]	activity change, negative = inhibition [5]
CC(C)(C)n1cnc2cccnc21	-1.43%	-3.74%	-0.831%	-1.55%	-2.59%
Cc1cc2c(cc3n2CC(C)(C(=O)NC2CCCCCCC2)N(Cc2ccccc2Cl)C3=O)o1 (stereo not given)	-4.17%	-9.97%	6.3%	-13.3%	-7.32%
CCCN1C(=O)c2c(C(=O)OC)ncn2CC1(C)C(=O)NCc1ccccc1 (stereo not given)	3.41%	0%	13.6%	9.18%	5.8%
COCCCNC(=O)CCc1nnc2n(Cc3ccccc3)c(=O)c3ccccc3n12	1.07%	0%	7.95%	11%	4.28%
Cc1ccc(N2C(=O)c3cc4occc4n3CC2(C)C(=O)NC2CCCCCC2)cc1 (stereo not given)	-6.7%	1.07%	-4.76%	2.09%	-6.5%
CCCSCCCN1C(=O)c2cc3oc(C)cc3n2CC1(C)C(=O)NC1CCCCC1 (stereo not given)	-1.29%	4.61%	-4.79%	0.755%	-3.68%
NC(=O)c1cccc2[nH]c(-c3ccc([C@H]4CCCN4)cc3F)nc12	-9.02%		-76.4%		
Fc1ccccc1CN1CCNc2cnc(OCc3cccnc3)cc2C1	-15.7%	-11.2%	-27.8%	-19.1%	-23.1%
C=CC(C)(C)C12Nc3c(ccc4c3OC(C)(C)C=C4)C1(O)CC1C(=O)N3CCCC3C(=O)N12 (stereo not given)	4.39%	4.99%	3.02%	-7.94%	2.91%
Cn1c(=O)c2ccc(C(=O)NC3CCCCC3)cc2n2c(=O)n(CC(=O)Nc3ccccc3Cl)nc12	0.598%	-0.699%	1.5%	-5.3%	1.81%
C=C[C@]1(C)C=C2CCC3C(C)(CCC[C@@]3(C)C(=O)O)C2CC1 (stereo not given in full)	-1.6%	-1.91%	6.9%	-17.7%	-1.84%
COCCOc1cnc2ccn([C@H](C)c3nnc4c(F)cc(-c5cnn(C)c5)cn34)c(=O)c2c1	-3.58%	-4.54%	-1.85%	-15.8%	-7.41%
Cc1cc(-c2ncc(-c3cccnc3)cc2/C=C/c2ccccc2)cnc1-c1cccnc1	5.28%	12.2%	-13.4%	-12.7%	5.42%
CCc1cc(Nc2nccc(-c3c(-c4ccc(OC)c(C(=O)Nc5c(F)cccc5F)c4)nc4ccccn34)n2)c(OC)cc1N1CCC(N2CCN(S(C)(=O)=O)CC2)CC1	-5.31%	-33.1%	-5.78%	-53.4%	-14.8%
CC(C)CCN1CC[C@@H]2OCC(=O)N(Cc3ccccc3)[C@H]2CC1	-6.97%	-3.11%	-7.62%	-12.4%	-6.07%
CC(C)CCNC(=O)C1(C)Cn2nc(C(=O)N3CCCC3)cc2C(=O)N1C (stereo not given)	5.95%	0%	4.75%	5.86%	4.16%
Cc1cc(CS(=O)(=O)c2ccccc2)cc(OCc2ccc(CN3CCCC3CO)cc2)c1 (stereo not given)	2.11%	8.15%	-28.7%	-12.1%	-13.9%
Cc1cc(-c2nc(CN3CCC(C(=O)NCCCN4C[C@H](C)C[C@H](C)C4)CC3)co2)ccc1F		-14.9%		-20.9%	-2.93%
CCCSCCCN1C(=O)c2cc3sccc3n2CC1(C)C(=O)NC1CCC(C)CC1 (stereo not given)	-2.44%	0%	0.248%	-3.5%	-3.05%
